Data published in PubChem BioAssay AID652106 (National Center for Advancing Translational Sciences (NCATS), 2013).
Where “and” joins values, the source holds several entries; their conditions need not be identical. Equal values may be shown once. Hit rate of the full screen: of about 370,000 compounds, about 500 (0.14%) were called active. Inconclusive means that the source gave no clear call. Such entries were picked first, then a sample of the others. Calls come from the whole dose curve; as a rule, active = well fitted activation curve with a large enough effect; inconclusive = small, poorly fitted or top-dose-only effect; inactive = no such curve, though single readings can be large or run the other way. Potencies of inconclusive entries are left out as doubtful fits.

Assay: qHTS of alpha-syn Inhibitors; note: nearly all actives have a fitted effect of over 65% in size; for growth rescue (activation): % of control where 0% means no effect
Conditions: Yeast expressing alpha-synuclein, BacTiter-Glo, 24 h; Potency: growth rescue unless noted; growth rescue (activation): at 46.1 µM (top of the series) unless noted
Text: The goal of this project is to identify new chemical probes capable of reversing the toxicity associated with the Parkinson disease-related protein, alpha-synuclein. Compounds will be selected on their ability to restore growth in yeast cells expressing toxic levels of alpha-synuclein. These compounds will provide a complementary approach to deciphering the tangled mechanisms of toxicity and protection that we have uncovered through genome-wide genetic screens and are beginning to uncover in a large-scale proteomics analysis with mass spectroscopy. To this end, a miniaturized assay was developed to be screened against the Molecular Libraries Small Molecule Repository (MLSMR) to discover alpha-synuclein inhibitors. Please note that in the set-up this yeast-based assay compounds that inhibit as alpha-syn, have a read-out as activators. NIH Chemical Genomics Center [NCGC] NIH Molecular Libraries Probe Centers Network [MLPCN] MLPCN Grant: NS060957 Assay Submitter (PI): Susan Lindquist, Whitehead Institute/MIT
Dispense 2.5 microL yeast galactose medium per 1536-well plate, pin compound, dispense 2.5 microL alpha-synuclein expressing yeast in galactose medium at OD600=0.02 (pregrown in raffinose medium to mid-log phase) per well, incubate for 24 hr at 30 deg C, and cell growth will be measured using 5 microL of Bactiter/Glo reagent to entire plate and read using Luminescence Protocol in ViewLux.
Potency is the fitted concentration of half-maximal effect; tags give direction and shape of the fitted curve.

| SMILES | Potency | growth rescue (activation) |
| --- | --- | --- |
| COc1cccc2c1C(=O)c1c(O)c3c(c(O)c1C2=O)CC(O)(C(C)=NNC(=O)c1ccc(Cl)c(Cl)c1)CC3OC1CC(N)C(O)C(C)O1 (stereo unspecified) | active: 28.2 µM |  |
| COc1ccc(-c2nc(CS(=O)(=O)CC(=O)NCCc3ccc(C)cc3)c(C)o2)cc1 | inconclusive [activator, single point] |  |
| C/C(=N\NC(=O)c1csc(C)c1C)c1ccc(Cl)s1 | inconclusive [activator, single point] |  |
| Cc1ccc(NC(=O)CCSc2nnc(Cc3ccccc3)o2)cc1 |  | inactive: 5.19% |
| O=C(O)CC(CCc1ccccc1)OC1OC(CO)C(O)C(O)C1O (stereo unspecified) | inconclusive [activator, single point] |  |
| CC(O)(c1cccc(F)c1)c1nc(-c2cnc3ccccc3c2)cs1 (stereo unspecified) | inconclusive [activator, single point] |  |
| CCc1ccc(CCC(=O)Nc2sc(C)c(C)c2C(=O)OC)o1 |  | inactive: 15% |
| O=C(Nc1nc(OCCN2CCCC2=O)cnc1/C=C\c1ccccc1)c1cc2ccccc2s1 | inconclusive [activator, single point] |  |
| CSCc1cccc(C(=O)OC(C)C(=O)Nc2c(C)n(C)n(-c3ccccc3)c2=O)c1 (stereo unspecified) | inconclusive [activator, single point] |  |
| Cc1ccc2oc(=O)c3cc(C(=O)NCCCN4CCCCCC4)sc3c2c1 | inconclusive [activator, single point] |  |
| Cc1cc(C)cc(NC(=S)NCC2CCCO2)c1 (stereo unspecified) |  | inactive: 0.168% |
| CCCC1COC(Cn2cncn2)(c2ccc(C)cc2)O1 (stereo unspecified) | inconclusive [activator, full curve] |  |
| COc1ccc(OC)c(-c2cc(C3CCN(c4ncccc4[N+](=O)[O-])CC3)[nH]n2)c1 | inconclusive [activator, single point] |  |
| CSc1ncc(Cl)c(C(=O)Nc2cccc(Cl)c2)n1 |  | inactive: 9.94% |
| COc1ccc(OC)c(NC(=O)CNC(=O)c2cccs2)c1 |  | inactive: -9.86% |
| O=S(=O)(c1ccc(Cl)cc1)N1CCOCC1 |  | inactive: 0.813% |
| O=c1[nH]ncc2c3ccccc3n(Cc3cccc(Cl)c3)c12 |  | inactive: 0.617% |
| Cc1ccc(S(=O)(=O)C[C@@H]2OC[C@H](Cc3ccccc3)N2S(=O)(=O)c2ccc(C)cc2)cc1 | inconclusive [activator, single point] |  |
| COc1ccc(C(=O)Nc2ccnn2C2CCN(Cc3ccccn3)CC2)cc1 |  | inactive: -3.04% |
| CC1CCC/C(=C\Nc2ccc3c(c2)OCO3)C1=O (stereo unspecified) |  | inactive: -3.83% |
| CCCCn1c(CCCNC(=O)CC)nc2ccccc21 | inconclusive [activator, single point] |  |
| Cc1cc2c(c(SCC(=O)N(C)c3ccccc3)n1)C(=O)OC2 |  | inactive: -3.2% |
| O=Nc1c(O)c2ccccc2c2ccccc12 |  | inconclusive: -73% [activator] |

| SMILES | Potency | growth rescue (activation) |
| --- | --- | --- |
| Cc1ccccc1CN(C)C(=O)COC(=O)c1ccc2[nH]c(C)c(C)c2c1 | inconclusive [activator, single point] |  |
| Cc1c(C(=O)NCc2ccc3c(c2)OCCO3)sc(=O)n1Cc1ccc(S(=O)(=O)N(C)C)cc1 | inconclusive [activator, single point] |  |
| O=C(COc1ccccc1Cl)Nc1nc(-c2cccs2)cs1 | inconclusive [activator, single point] |  |
| COc1cc2c(cc1NC(=O)COC(=O)C(CCSC)NC(=O)c1ccccc1Cl)oc1ccccc12 (stereo unspecified) |  | inactive: 7.29% |
| CC(C)(C)OC(=O)N1CCC(NC(=O)c2nc[nH]c2C(=O)NC2CCN(C(=O)OC(C)(C)C)CC2)CC1 |  | inactive: -0.0598% |
| C[C@@H]1CN([C@@H](C)CO)C(=O)CCCn2nncc2CO[C@H]1CN(C)C(=O)C1CC1 | inconclusive [activator, single point] |  |
| O=C(NCCN1CCN(c2cccc(Cl)c2)CC1)c1ccc(CSc2nc3ccncc3[nH]2)cc1 | inconclusive [activator, single point] |  |
| CN(C)S(=O)(=O)c1ccc(NC(=O)c2ccc(Br)o2)cc1 |  | inactive: -13.3% |
| Nc1nc2c(s1)CCc1c-2cnn1-c1ccccc1 | active: 15.8 µM and active: 11.2 µM |  |
| CC(=O)Nc1ccc(/C=C/c2ccnc3ccccc23)cc1[N+](=O)[O-] |  | inactive: 0% |
| O=c1c2ccccc2oc2cc(Br)ccc12 | inconclusive [activator, partial curve] |  |
| COc1cc(OC)cc(C(=O)Nc2nc(-c3ccccc3)c(-c3ccccc3)o2)c1 | inconclusive [activator, single point] |  |
| CC1(C(=O)Nc2cccc3ccccc23)CCN1C(=O)Cc1ccc(Cl)cc1Cl (stereo unspecified) | inconclusive [activator, single point] |  |
| Clc1ccccc1-c1nnc2sc(-c3ccc4c(c3)OCO4)nn12 |  | inactive: -15.4% |
| O=C(Nc1ccnn1C1CCN(CC2CC=CCC2)CC1)c1ccccc1 (stereo unspecified) |  | inactive: -9.25% |
| COc1ccc2c(c1)c(=O)oc1cc(OCC(=O)N3CCCC(C)C3)ccc12 (stereo unspecified) |  | inactive: -0.143% |
| CCOC(=O)c1c(C)[nH]c(C(=O)OCC(=O)NCc2ccco2)c1C | inconclusive [activator, single point] |  |
| O=C(CSc1cn(CCNC(=O)c2ccccc2)c2ccccc12)NCc1ccco1 | inconclusive [activator, single point] |  |
| Cc1cc(C)c(C#N)c(SCC(O)COc2ccc(Br)cc2)n1 (stereo unspecified) | inconclusive [activator, partial curve] |  |
| O=C(Nc1ccc(N2CCOCC2)cc1)c1csc([C@@H]2C[C@H](O)[C@@H](CO)O2)n1 | inconclusive [activator, single point] |  |
| COc1ccc(OCC(=O)NC(=S)NNC(=O)COc2ccc(Br)cc2Cl)cc1 | inconclusive [activator, single point] |  |
| O=C(COc1ccccc1Cl)Nc1ccc(-c2nc3ccccc3s2)cc1 |  | inactive: 2.56% |
| COc1cc(C(O)c2nc(-c3cccc(F)c3)cs2)ccc1F (stereo unspecified) | inconclusive [activator, single point] |  |
